{"source": "PubChem BioAssay (NCATS)", "key": {"[1]": {"experiment": "qHTS of pediatric cancer cell lines to identify multiple opportunities for drug repurposing: Primary screen for SK-N-MC cells (AID 1347093)"}, "[2]": {"experiment": "qHTS of pediatric cancer cell lines to identify multiple opportunities for drug repurposing: Primary screen for NB-EBc1 cells (AID 1347095)"}, "[3]": {"experiment": "qHTS of pediatric cancer cell lines to identify multiple opportunities for drug repurposing: Primary screen for NB1643 cells (AID 1347099); note: nearly all actives have a fitted effect of over 50% in size"}, "[4]": {"experiment": "P-glycoprotein substrates identified in KB-8-5-11 adenocarcinoma cell line, qHTS therapeutic library screen (AID 1346987); note: nearly all actives have a fitted effect of over 65% in size", "conditions": "KB-8-5-11 (P-gp overexpressing) viability, CellTiter-Glo, 72 h", "procedure,_shortened": "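Human cervical adenocarcinoma KB-8-5-11 cells, selected in colchicine to over-express P-gp and assayed without it, were exposed for 72 h to titrated compounds. An ATP-based luminescent viability signal gave AC50.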"}, "[5]": {"experiment": "qHTS of pediatric cancer cell lines to identify multiple opportunities for drug repurposing: Primary screen for SK-N-SH cells (AID 1347098); note: nearly all actives have a fitted effect of over 65% in size", "procedure,_shortened": "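Cells (500-1,000/well) rested 5 h, then received compounds for 48 h; metabolically active cells were measured by CellTiter-Glo luminescence. Final concentrations spanned up to 46 µM (MIPE, 11-point) or 0.59 nM-46 µM (NPC, 8-point) in primary screens, 11-point in follow-ups.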"}}, "note": "Results filed as inconclusive are left out. Calls come from the whole dose curve; as a rule, active = well fitted curve in the direction sought with a large enough effect; inconclusive = small, poorly fitted or top-dose-only effect, or another doubt; inactive = no such curve, though single readings can be large; an effect the other way counts as inactive or inconclusive. A number of entries come with more than one value. This list holds those alone. An entry can have further records. Values that stand side by side are repeated measurements (runs, samples, wells, individuals or studies). Some compounds were tested as several samples or in several runs, with calls that do not always agree. Marks in square brackets tell the records apart. The letters are not those of the source and start again with each entry. Potency is the fitted concentration of half-maximal effect.", "data": [{"molecule": "CS(=O)(=O)OCCCCOS(C)(=O)=O", "values": [{"measurement": "Potency", "setting": "[1]", "result": "inactive [sample A] and active: 20.9 µM [sample B]"}, {"measurement": "Potency", "setting": "[2]", "result": "inactive [sample A] and active: 16.6 µM [sample B]"}]}, {"molecule": "COc1cc2c(N3CCN(C(=O)Nc4ccc(OC(C)C)cc4)CC3)ncnc2cc1OCCCN1CCCCC1", "values": [{"measurement": "Potency", "setting": "[3]", "result": "active: 20.9 µM [sample A] and inactive [sample B]"}]}, {"molecule": "CNC[C@H](O)c1ccc(O)c(O)c1", "values": [{"measurement": "Potency", "setting": "[2]", "result": "active: 42.9 µM [sample A] and inactive [sample B]"}]}, {"molecule": "CC1=C(C)C(=O)C(C(CCCCCC(=O)O)c2ccccc2)=C(C)C1=O", "note": "(configuration not stated)", "values": [{"measurement": "Potency", "setting": "[3]", "result": "active: 26.4 µM [sample A] and inactive [sample B]"}]}, {"molecule": "CC(C)C[C@H](NC(=O)[C@H](Cc1ccccc1)NC(=O)c1cnccn1)B(O)O", "values": [{"measurement": "Potency", "setting": "[4]", "result": "active: 820, 651, 118, 116 nM [separate samples]"}]}, {"molecule": "Cc1cccc(C)c1OCC(=O)N[C@@H](Cc1ccccc1)[C@@H](O)C[C@H](Cc1ccccc1)NC(=O)[C@H](C(C)C)N1CCCNC1=O", "values": [{"measurement": "Potency", "setting": "[5]", "result": "inactive [sample A] and active: 17.2 µM [sample B]"}]}]}
